Results published in a collection of fitness landscapes (doi:10.1016/j.celrep.2020.107928).
In all, about 81,000 sequences were measured (“one-hybrid fitness for binding NBS DNA”: median about -0.1, highest 2% from about 0.36 on). The list shows a part of the results.

B1: Caulobacter ParB omega fusion; a variant is named by its letters at X, in order, B8GW30 (parent)
chain: MESVVVGEPGMSEGRRGLGRGLSALLGEVDAAPAQAPGEQLGGSREAPIEILQRNPDQPRRTFREEDLEDLSNSIREKGVLQPILVRPSPDTAGEYQIVAGERAWRAAQRAGLKTVPIMVRELDDLAVLEIGIIENVQRADLNVLEEALSYKVLMEKFERTQENIAQTIGKSXSHVANXMRLLXLPDEVQSYLVSGELTAXHARAIAAAADPVALAKQIIEGGLSVRETEALARKAPNLSAGKSKGGRPPRVKDTDTQALESDLSSVLGLDVSIDHRGSTGTLTITYATLEQLDDLCNRLTRGI

Variants of: B1
Assay: one-hybrid fitness for binding NBS DNA (the Noc-binding site; scaled: cognate 1, non-cognate 0); higher = stronger binding
Conditions: with NBS DNA site
How it was run: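 Fitness is the rescaled log change in variant-to-wild-type read ratio, measured by Illumina sequencing of plasmids before and after bacterial one-hybrid selection. The scale puts cognate at 1 and non-cognate at 0. Selection of Caulobacter ParB libraries, four specificity codons randomised, took place in E. coli USO with a HIS3 reporter, site 19 bp from the promoter, over 48 hours at 37°C on M9-minus-histidine with 0.1 mM IPTG and 5 mM 3-AT.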
With NWAS the “one-hybrid fitness for binding NBS DNA” value was ≤ 0.2. FRRP was tested, and the “one-hybrid fitness for binding NBS DNA” value was ≤ 0.2. With NNYG the “one-hybrid fitness for binding NBS DNA” value was ≤ 0.2. For GHVM, the “one-hybrid fitness for binding NBS DNA” value was ≤ 0.2. CEKW was tested, and the “one-hybrid fitness for binding NBS DNA” value was ≤ 0.2. With HICH the “one-hybrid fitness for binding NBS DNA” value was ≤ 0.2. For AYAG, the “one-hybrid fitness for binding NBS DNA” value was ≤ 0.2. KPAP was tested, and the “one-hybrid fitness for binding NBS DNA” value was ≤ 0.2. For PQNW, the “one-hybrid fitness for binding NBS DNA” value was ≤ 0.2. For RAYW, the “one-hybrid fitness for binding NBS DNA” value was ≤ 0.2. In the case of VCYS, the “one-hybrid fitness for binding NBS DNA” value is reported as ≤ 0.2. In the case of GKPS, the “one-hybrid fitness for binding NBS DNA” value is reported as ≤ 0.2. In the case of VDKN, the “one-hybrid fitness for binding NBS DNA” value is reported as ≤ 0.2. For SAVR, the “one-hybrid fitness for binding NBS DNA” value was ≤ 0.2. For THQC, the “one-hybrid fitness for binding NBS DNA” value was ≤ 0.2. In the case of GRAN, the “one-hybrid fitness for binding NBS DNA” value is reported as ≤ 0.2. In the case of PADQ, the “one-hybrid fitness for binding NBS DNA” value is reported as ≤ 0.2. With WSGA the “one-hybrid fitness for binding NBS DNA” value was ≤ 0.2. QTDN was tested, and the “one-hybrid fitness for binding NBS DNA” value was ≤ 0.2. HKNA was tested, and the “one-hybrid fitness for binding NBS DNA” value was ≤ 0.2. In the case of RMIA, the “one-hybrid fitness for binding NBS DNA” value is reported as ≤ 0.2. With AMES the “one-hybrid fitness for binding NBS DNA” value was ≤ 0.2. For HLQS, the “one-hybrid fitness for binding NBS DNA” value was ≤ 0.2. For HRLI, the “one-hybrid fitness for binding NBS DNA” value was ≤ 0.2. In the case of GLCT, the “one-hybrid fitness for binding NBS DNA” value is reported as ≤ 0.2. For EHKA, the “one-hybrid fitness for binding NBS DNA” value was ≤ 0.2. For HPDD, the “one-hybrid fitness for binding NBS DNA” value was ≤ 0.2. With ASTV the “one-hybrid fitness for binding NBS DNA” value was ≤ 0.2. AAHV was tested, and the “one-hybrid fitness for binding NBS DNA” value was ≤ 0.2. In the case of VRIL, the “one-hybrid fitness for binding NBS DNA” value is reported as ≤ 0.2. In the case of VHPI, the “one-hybrid fitness for binding NBS DNA” value is reported as ≤ 0.2. VSMM was tested, and the “one-hybrid fitness for binding NBS DNA” value was ≤ 0.2. NQMA was tested, and the “one-hybrid fitness for binding NBS DNA” value was ≤ 0.2. For LAGF, the “one-hybrid fitness for binding NBS DNA” value was ≤ 0.2. With VMSI the “one-hybrid fitness for binding NBS DNA” value was ≤ 0.2. With RAIK the “one-hybrid fitness for binding NBS DNA” value was ≤ 0.2. RWMQ was tested, and the “one-hybrid fitness for binding NBS DNA” value was ≤ 0.2. With EIKG the “one-hybrid fitness for binding NBS DNA” value was ≤ 0.2. RAVF was tested, and the “one-hybrid fitness for binding NBS DNA” value was ≤ 0.2. In the case of RNPC, the “one-hybrid fitness for binding NBS DNA” value is reported as ≤ 0.2. With NMAC the “one-hybrid fitness for binding NBS DNA” value was ≤ 0.2. For LCRS, the “one-hybrid fitness for binding NBS DNA” value was ≤ 0.2. For SPHH, the “one-hybrid fitness for binding NBS DNA” value was ≤ 0.2. In the case of QPMV, the “one-hybrid fitness for binding NBS DNA” value is reported as ≤ 0.2. With DDGE the “one-hybrid fitness for binding NBS DNA” value was ≤ 0.2. With DFTG the “one-hybrid fitness for binding NBS DNA” value was ≤ 0.2. RLDD was tested, and the “one-hybrid fitness for binding NBS DNA” value was ≤ 0.2. In the case of DKAS, the “one-hybrid fitness for binding NBS DNA” value is reported as ≤ 0.2. With KAVR the “one-hybrid fitness for binding NBS DNA” value was ≤ 0.2. QICC was tested, and the “one-hybrid fitness for binding NBS DNA” value was ≤ 0.2. With PKVW the “one-hybrid fitness for binding NBS DNA” value was ≤ 0.2. RIPP was tested, and the “one-hybrid fitness for binding NBS DNA” value was ≤ 0.2. For AMTR, the “one-hybrid fitness for binding NBS DNA” value was ≤ 0.2. With LHVL the “one-hybrid fitness for binding NBS DNA” value was ≤ 0.2. QQAM was tested, and the “one-hybrid fitness for binding NBS DNA” value was ≤ 0.2. In the case of ALVH, the “one-hybrid fitness for binding NBS DNA” value is reported as ≤ 0.2. In the case of TPTS, the “one-hybrid fitness for binding NBS DNA” value is reported as ≤ 0.2. With FAES the “one-hybrid fitness for binding NBS DNA” value was ≤ 0.2. For QSAI, the “one-hybrid fitness for binding NBS DNA” value was ≤ 0.2. KFRW was tested, and the “one-hybrid fitness for binding NBS DNA” value was ≤ 0.2. In the case of RMTQ, the “one-hybrid fitness for binding NBS DNA” value is reported as ≤ 0.2. KHII was tested, and the “one-hybrid fitness for binding NBS DNA” value was ≤ 0.2. For YFSS, the “one-hybrid fitness for binding NBS DNA” value was ≤ 0.2. With AHHS the “one-hybrid fitness for binding NBS DNA” value was ≤ 0.2. For YMPG, the “one-hybrid fitness for binding NBS DNA” value was ≤ 0.2. For CTLA, the “one-hybrid fitness for binding NBS DNA” value was ≤ 0.2. With RNEG the “one-hybrid fitness for binding NBS DNA” value was ≤ 0.2. With TNKC the “one-hybrid fitness for binding NBS DNA” value was ≤ 0.2. SPCS was tested, and the “one-hybrid fitness for binding NBS DNA” value was ≤ 0.2. For LHNM, the “one-hybrid fitness for binding NBS DNA” value was ≤ 0.2. In the case of PYGS, the “one-hybrid fitness for binding NBS DNA” value is reported as ≤ 0.2. For SITD, the “one-hybrid fitness for binding NBS DNA” value was ≤ 0.2. QLGG was tested, and the “one-hybrid fitness for binding NBS DNA” value was ≤ 0.2. In the case of HSLA, the “one-hybrid fitness for binding NBS DNA” value is reported as ≤ 0.2. In the case of TQMY, the “one-hybrid fitness for binding NBS DNA” value is reported as ≤ 0.2. SVFK was tested, and the “one-hybrid fitness for binding NBS DNA” value was ≤ 0.2. WWHR was tested, and the “one-hybrid fitness for binding NBS DNA” value was ≤ 0.2. In the case of ATVS, the “one-hybrid fitness for binding NBS DNA” value is reported as ≤ 0.2. In the case of MINT, the “one-hybrid fitness for binding NBS DNA” value is reported as ≤ 0.2. For YYYS, the “one-hybrid fitness for binding NBS DNA” value was ≤ 0.2. For WYTS, the “one-hybrid fitness for binding NBS DNA” value was ≤ 0.2. For APHE, the “one-hybrid fitness for binding NBS DNA” value was ≤ 0.2. For RSSK, the “one-hybrid fitness for binding NBS DNA” value was ≤ 0.2. In the case of PICE, the “one-hybrid fitness for binding NBS DNA” value is reported as ≤ 0.2. For KYDN, the “one-hybrid fitness for binding NBS DNA” value was ≤ 0.2. WQTF was tested, and the “one-hybrid fitness for binding NBS DNA” value was ≤ 0.2. For NWLC, the “one-hybrid fitness for binding NBS DNA” value was ≤ 0.2. For LVTP, the “one-hybrid fitness for binding NBS DNA” value was ≤ 0.2. With KVMG the “one-hybrid fitness for binding NBS DNA” value was ≤ 0.2. In the case of MWMC, the “one-hybrid fitness for binding NBS DNA” value is reported as ≤ 0.2. For AIKC, the “one-hybrid fitness for binding NBS DNA” value was ≤ 0.2. In the case of LYEC, the “one-hybrid fitness for binding NBS DNA” value is reported as ≤ 0.2. SLMF was tested, and the “one-hybrid fitness for binding NBS DNA” value was ≤ 0.2. With SVNP the “one-hybrid fitness for binding NBS DNA” value was ≤ 0.2. In the case of ELDR, the “one-hybrid fitness for binding NBS DNA” value is reported as ≤ 0.2. With KYLV the “one-hybrid fitness for binding NBS DNA” value was ≤ 0.2. With KYRR the “one-hybrid fitness for binding NBS DNA” value was 0.363. LDLM was tested, and the “one-hybrid fitness for binding NBS DNA” value was ≤ 0.2. TGYS was tested, and the “one-hybrid fitness for binding NBS DNA” value was ≤ 0.2. With YDQG the “one-hybrid fitness for binding NBS DNA” value was ≤ 0.2. HFSD was tested, and the “one-hybrid fitness for binding NBS DNA” value was ≤ 0.2. WFRC was tested, and the “one-hybrid fitness for binding NBS DNA” value was ≤ 0.2. With ARVP the “one-hybrid fitness for binding NBS DNA” value was ≤ 0.2. With MSLA the “one-hybrid fitness for binding NBS DNA” value was ≤ 0.2. For QISW, the “one-hybrid fitness for binding NBS DNA” value was ≤ 0.2. In the case of PEWA, the “one-hybrid fitness for binding NBS DNA” value is reported as ≤ 0.2. In the case of KRNQ, the “one-hybrid fitness for binding NBS DNA” value is reported as ≤ 0.2. WGQS was tested, and the “one-hybrid fitness for binding NBS DNA” value was ≤ 0.2. For HNNR, the “one-hybrid fitness for binding NBS DNA” value was ≤ 0.2. In the case of TDLN, the “one-hybrid fitness for binding NBS DNA” value is reported as ≤ 0.2. With MSQG the “one-hybrid fitness for binding NBS DNA” value was ≤ 0.2. With TTWN the “one-hybrid fitness for binding NBS DNA” value was ≤ 0.2. For YSER, the “one-hybrid fitness for binding NBS DNA” value was ≤ 0.2. MRTS was tested, and the “one-hybrid fitness for binding NBS DNA” value was ≤ 0.2. With YCVT the “one-hybrid fitness for binding NBS DNA” value was ≤ 0.2. In the case of QPWS, the “one-hybrid fitness for binding NBS DNA” value is reported as ≤ 0.2. In the case of SKVY, the “one-hybrid fitness for binding NBS DNA” value is reported as ≤ 0.2. With HMTY the “one-hybrid fitness for binding NBS DNA” value was ≤ 0.2. MRKH was tested, and the “one-hybrid fitness for binding NBS DNA” value was ≤ 0.2. For AKDD, the “one-hybrid fitness for binding NBS DNA” value was ≤ 0.2. With HIPF the “one-hybrid fitness for binding NBS DNA” value was ≤ 0.2. LRSG was tested, and the “one-hybrid fitness for binding NBS DNA” value was ≤ 0.2. With FLYR the “one-hybrid fitness for binding NBS DNA” value was ≤ 0.2. FCHT was tested, and the “one-hybrid fitness for binding NBS DNA” value was ≤ 0.2. For LSYC, the “one-hybrid fitness for binding NBS DNA” value was ≤ 0.2. In the case of SQCS, the “one-hybrid fitness for binding NBS DNA” value is reported as ≤ 0.2. In the case of WQRG, the “one-hybrid fitness for binding NBS DNA” value is reported as ≤ 0.2. With ARKR the “one-hybrid fitness for binding NBS DNA” value was 0.364. In the case of VSWS, the “one-hybrid fitness for binding NBS DNA” value is reported as ≤ 0.2. With TPAF the “one-hybrid fitness for binding NBS DNA” value was ≤ 0.2. With LFIV the “one-hybrid fitness for binding NBS DNA” value was ≤ 0.2. With WPLG the “one-hybrid fitness for binding NBS DNA” value was ≤ 0.2. In the case of EYYC, the “one-hybrid fitness for binding NBS DNA” value is reported as ≤ 0.2. For GNPV, the “one-hybrid fitness for binding NBS DNA” value was ≤ 0.2. In the case of HRDC, the “one-hybrid fitness for binding NBS DNA” value is reported as ≤ 0.2. FEYR was tested, and the “one-hybrid fitness for binding NBS DNA” value was ≤ 0.2. For QNIP, the “one-hybrid fitness for binding NBS DNA” value was ≤ 0.2. With TDLI the “one-hybrid fitness for binding NBS DNA” value was ≤ 0.2. CIHW was tested, and the “one-hybrid fitness for binding NBS DNA” value was ≤ 0.2. With TETQ the “one-hybrid fitness for binding NBS DNA” value was ≤ 0.2. For VDQH, the “one-hybrid fitness for binding NBS DNA” value was ≤ 0.2. PRLT was tested, and the “one-hybrid fitness for binding NBS DNA” value was ≤ 0.2. In the case of RHTY, the “one-hybrid fitness for binding NBS DNA” value is reported as ≤ 0.2. In the case of KFGT, the “one-hybrid fitness for binding NBS DNA” value is reported as ≤ 0.2. MKRD was tested, and the “one-hybrid fitness for binding NBS DNA” value was ≤ 0.2. With DRLG the “one-hybrid fitness for binding NBS DNA” value was ≤ 0.2. SLKH was tested, and the “one-hybrid fitness for binding NBS DNA” value was ≤ 0.2. In the case of SHHT, the “one-hybrid fitness for binding NBS DNA” value is reported as ≤ 0.2. APHT was tested, and the “one-hybrid fitness for binding NBS DNA” value was ≤ 0.2. With YFES the “one-hybrid fitness for binding NBS DNA” value was ≤ 0.2. DHNG was tested, and the “one-hybrid fitness for binding NBS DNA” value was ≤ 0.2. MRAD was tested, and the “one-hybrid fitness for binding NBS DNA” value was ≤ 0.2. For HHAS, the “one-hybrid fitness for binding NBS DNA” value was ≤ 0.2.
